Experimental data: PubChem BioAssay AID1645887 (National Center for Advancing Translational Sciences (NCATS), 2021)
Values joined by “and” are separate entries in the source; they are usually repeats but may differ in a detail not shown here. Identical values can stand only once. The whole screen tested about 16,000 compounds, of which about 40 (0.2%) were called active. Another 1% or so got no clear call; they are omitted. Calls come from the whole dose curve; as a rule, active = well fitted activation curve with a large enough effect; inconclusive = small, poorly fitted or top-dose-only effect, or another doubt; inactive = no such curve, though single readings can be large or run the other way. The list shows a part of the results.

Target: Rap guanine nucleotide exchange factor 4 (Homo sapiens) (UniProt Q8WZA2)
Assay: Validation qHTS for agonist of cAMP-regulated guanine nucleotide exchange factor 4 (EPAC2);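 note: exchange makes BODIPY-GDP fluorescence drop when released from Rap1B; series mostly up to about 150 µM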
Settings: EPAC2 Rap1B BODIPY-GDP exchange, fluorescence; activation: stronger effect = higher value
How it was run: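 Signal normalized against 6.5 mM cAMP as agonist control. Mix of EPAC2 (100 nM), RAP1B-BODIPY-GDP (250 nM) and GDP (50 uM) was read kinetically at 480/540 nm, every 5 min over 30 min, after 5 min room-temperature incubation with compound.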
% is set by controls: 0 for no effect and ±100 for the full control effect.

Sequence of UniProt Q8WZA2 (Q8WZA2 whole entry, looked up): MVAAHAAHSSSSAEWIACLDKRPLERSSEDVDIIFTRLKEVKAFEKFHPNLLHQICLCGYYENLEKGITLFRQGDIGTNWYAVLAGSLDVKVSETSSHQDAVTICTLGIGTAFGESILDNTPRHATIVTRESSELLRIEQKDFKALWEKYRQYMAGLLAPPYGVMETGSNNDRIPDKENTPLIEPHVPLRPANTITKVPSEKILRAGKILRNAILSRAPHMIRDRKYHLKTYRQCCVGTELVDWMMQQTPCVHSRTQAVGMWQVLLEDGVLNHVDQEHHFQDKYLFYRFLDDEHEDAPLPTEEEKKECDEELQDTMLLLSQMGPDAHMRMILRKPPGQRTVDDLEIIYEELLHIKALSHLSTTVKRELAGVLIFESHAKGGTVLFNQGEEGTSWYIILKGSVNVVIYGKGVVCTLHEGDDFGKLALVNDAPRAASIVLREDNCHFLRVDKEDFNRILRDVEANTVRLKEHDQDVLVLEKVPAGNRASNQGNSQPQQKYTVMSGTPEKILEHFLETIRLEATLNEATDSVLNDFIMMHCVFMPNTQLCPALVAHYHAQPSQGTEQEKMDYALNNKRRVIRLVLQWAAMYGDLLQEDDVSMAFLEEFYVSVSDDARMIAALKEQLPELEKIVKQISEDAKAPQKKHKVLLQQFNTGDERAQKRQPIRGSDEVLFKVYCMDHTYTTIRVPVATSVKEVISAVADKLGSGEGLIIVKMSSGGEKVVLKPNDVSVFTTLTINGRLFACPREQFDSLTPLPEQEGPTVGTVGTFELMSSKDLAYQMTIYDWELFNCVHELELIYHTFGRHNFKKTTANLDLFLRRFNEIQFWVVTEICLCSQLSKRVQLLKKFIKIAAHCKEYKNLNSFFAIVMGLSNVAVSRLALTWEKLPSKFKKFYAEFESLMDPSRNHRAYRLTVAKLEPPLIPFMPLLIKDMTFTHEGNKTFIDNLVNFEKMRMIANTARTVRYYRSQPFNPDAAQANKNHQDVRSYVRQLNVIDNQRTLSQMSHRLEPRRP

Compound	activation
CC(C)CCC(=O)O[C@H]1CC[C@H]2[C@@H]3CCC4=CC(=O)CC[C@]4(C)[C@H]3CC[C@]12C	inactive: -8.21%
NNC(=O)c1ccc(O)cc1	inactive: 5.24%
COC(=O)[C@@H](N)CCCN=C(N)N[N+](=O)[O-]	inactive: -4.09% and inactive: -12.6%
C[C@]1(O)CC[C@H]2[C@@H]3CCC4=CC(=O)CC[C@]4(C)[C@@]3(F)[C@@H](O)C[C@@]21C	inactive: 8.59%
CN1CCN=C(c2ccccc2)c2cc(Cl)ccc21	inactive: -5.03%
O[C@@H]1CCCC[C@@H]1N1CCC(c2ccccc2)CC1	inactive: 5.35%
CCCC[C@H]1C(=O)O[C@H](C)[C@H](NC(=O)c2cccc(NC=O)c2OC)C(=O)O[C@@H](C)[C@@H]1OC(=O)CC(C)C	inactive: -41%
C=C(C)C1Cc2c(ccc3c(=O)c4c(oc23)COc2cc(OC)c(OC)cc2-4)O1 (stereo unspecified)	inactive: 1.58% and inactive: -10.2%
CCCOc1ccc2[nH]cc(C3=CCNCC3)c2n1	inactive: -8.58%
FC(F)OC(F)(F)C(F)Cl (stereo unspecified)	inactive: 7.59%
C[C@H](CN1CCOCC1)C(C(=O)N1CCCC1)(c1ccccc1)c1ccccc1	inactive: -20%
CNCCc1c[nH]c2ccc(O)cc12	inactive: 4.52% and inactive: -16.7%
C[C@@]12CCC3C(CC[C@@H]4CC(O)CC[C@@]34C)C1CCC2O (stereo partly specified)	inactive: -15.8%
NCCCP(=O)(O)O	inactive: -28.2%
CCC1(CC)C(=O)C=CNC1=O	inactive: -13.2%
NC1=NC(=O)N2CC12 (stereo unspecified)	inactive: 14.8%
CC(C)(c1ccc(OCC2CO2)cc1)c1ccc(OCC2CO2)cc1 (stereo unspecified)	inactive: -9.17% and inactive: -12.8%
c1ccc(N2CCN(c3ccccc3)CC2)cc1	inactive: -1.12%
O=C(NC(=O)c1c(F)cccc1F)Nc1cc(Cl)c(OC(F)(F)C(F)C(F)(F)F)cc1Cl (stereo unspecified)	inactive: 9.23% and inactive: -12.8%
NC[C@@H](CC(=O)O)c1ccc(Cl)cc1	inactive: -17.7%
CCOC(=O)c1cc2c(cn1)[nH]c1ccccc12	inactive: -1.95% and inactive: 2.43%

Compound	activation
CNCC(=O)c1ccc(O)c(O)c1	inactive: 3.95%
C[C@]12CC[C@H]3[C@@H](CCC4=C(Cl)C(=O)CC[C@@]43C)[C@@H]1CC[C@@H]2O	inactive: -3.91%
CC1=C2C3OC(=O)[C@H](C)[C@H]3CC[C@@]2(C)C=CC1=O (stereo partly specified)	inactive: -0.976%
CC(C)CN1CC[C@@]2(CCCN(C(=O)Oc3ccccc3)C2)C1	inactive: -0.364%
NNC(N)=O	inactive: -13%
ClC1=C(Cl)[C@]2(Cl)[C@@H]3[C@H]4C[C@H]([C@@H]5O[C@H]45)[C@@H]3[C@@]1(Cl)C2(Cl)Cl	inactive: -2.08%
CC1(C)N(O)C(c2ccc(C(=O)O)cc2)=[N+]([O-])C1(C)C	inactive: -19.6%
CC(C)[C@@]1(NC(=O)[C@H]2CC3c4cccc5[nH]cc(c45)C[C@H]3N(C)C2)O[C@@]2(O)C3CCCN3C(=O)[C@@H](Cc3ccccc3)N2C1=O (stereo partly specified)	inactive: 17.1%
CC(C)(C)NCC(O)c1cc(Cl)c(N)c(Cl)c1 (stereo unspecified)	inactive: -16.3% and inactive: 0.535%
CC[C@]1(C2=NCCN2)Cc2ccccc2O1	inactive: -2.67%
Fc1ccc(C(OCCN2CCN(CCCc3ccccc3)CC2)c2ccc(F)cc2)cc1	inactive: -7.07% and inactive: -6.71% and inactive: -27.8%
N[C@@H](CCl)C(=O)O	inactive: -37%
COc1cc2c(cc1OC)[C@@]13CCN4CC5=CCO[C@H]6CC(=O)N2[C@H]1[C@H]6[C@H]5C[C@H]43	inactive: -9.08%
CCOCN(C(=O)CCl)c1c(C)cccc1CC	inactive: -5.56%
C=C1[C@@H](C)[C@H]2[C@H](Cc3ccccc3)NC(=O)[C@]23[C@H](OC(C)=O)/C=C/[C@](C)(O)C(=O)[C@@H](C)C/C=C/[C@H]3[C@@H]1O	inactive: -7.31%
CC(CN)CC(=O)O (stereo unspecified)	inactive: -6.06%
C=C(C)[C@H]1Cc2c(ccc3c2O[C@@H]2COc4cc(OC)c(OC)cc4[C@@H]2C3=O)O1	inactive: -12.6% and inactive: -27.2% and inactive: -56.9%
COC(=O)C1=CCCN(C)C1	inactive: -7.37% and inactive: -14.9% and inactive: -24.3%
C=C(C)CN1CC[C@@]23c4c5ccc(O)c4O[C@H]2c2[nH]c4ccccc4c2C[C@]3(O)[C@@H]1C5	inactive: -27.3%
NCC(CC(=O)O)c1ccc(Cl)s1 (stereo unspecified)	inactive: 0.78%
O=c1ccc2cc(O[C@H]3OC(CO)C(O)C(O)C3O)c(O)cc2o1 (stereo partly specified)	inactive: -3.84% and inactive: -2.45%

Compound	activation
O=C(/C=C/c1ccc(Cl)cc1)N[C@@]12CCC(=O)[C@@H]3Oc4c(O)ccc5c4[C@@]31CCN(CC1CC1)C2C5	inactive: 8.59%
O=C1/C(=C\c2ccccc2)C[C@@]2(O)[C@H]3Cc4ccc(O)c5c4[C@@]2(CCN3CC2CC2)[C@H]1O5	inactive: 5.66%
c1cc2cc(c1)C[n+]1ccc(c3ccccc31)NCc1ccc(cc1)CNc1cc[n+](c3ccccc13)C2	inactive: -15.2%
C/C=C(\CC)C(=O)NC(N)=O	inactive: -6.29%
Oc1ccc2c3c1O[C@H]1c4c(c5ccccc5n4Cc4ccccc4)C[C@]4(O)[C@H](C2)N(CC2CC2)CC[C@@]314	inactive: -11.5%
H-YGGFLRKYPK-OH	inactive: 7.38%
Oc1ccc2c3c1O[C@H]1c4c(c5ccccc5n4Cc4ccccc4)C[C@@]4(O)C(C2)N(CC2CC2)CC[C@]314	inactive: -8.5%
COC1=CC(=O)OC(/C=C/c2ccccc2)C1 (stereo unspecified)	inactive: -10.5%
COCC(C)N(C(=O)CCl)c1c(C)csc1C (stereo unspecified)	inactive: -5.5%
CC(C)=CCN1CC[C@@]2(C)c3cc(O)ccc3C[C@@H]1[C@@H]2C	inactive: -8.78%
Cc1nnc2n1-c1ccc(Cl)cc1C(c1ccccc1Cl)=NC2	inactive: 15.3%
CC(N)Cc1c[nH]c2ccc(O)cc12 (stereo unspecified)	inactive: 5.71% and inactive: -3.5%
CC(=O)O[C@H]1C[C@H](O[C@H]2[C@@H](O)C[C@H](O[C@H]3[C@@H](O)C[C@H](O[C@H]4CC[C@@]5(C)[C@H](CC[C@@H]6[C@@H]5C[C@@H](O)[C@]5(C)[C@@H](C7=CC(=O)OC7)CC[C@]65O)C4)O[C@@H]3C)O[C@@H]2C)O[C@H](C)[C@H]1O[C@@H]1O[C@H](CO)[C@@H](O)[C@H](O)[C@H]1O	inactive: -23.6%
O=C1CN=C(c2ccccc2)c2cc(Cl)ccc2N1CC1CC1	inactive: -22.9%
N[C@H](CCCCCP(=O)(O)O)C(=O)O	inactive: -7.03% and inactive: 2.47%
NC(Cc1cc(O)c(O)cc1O)C(=O)O (stereo unspecified)	inactive: -54.9%
C[C@H]1CCC[C@H](O)CCCCCc2cc(O)cc(O)c2C(=O)O1	inactive: -1.04%
O=C(CN1CCCCC1)c1ccccc1	inactive: -16.1%
C/C=C1/C[C@@H](C)[C@](O)(CO)C(=O)OCC2=CCN3CC[C@@H](OC1=O)C23 (stereo partly specified)	inactive: 2.37%
N[C@@H](CCCCP(=O)(O)O)C(=O)O	inactive: 5.15%
O=C1C=C2C(=CCOC2O)O1 (stereo unspecified)	inactive: -3.22%

Compound	activation
COc1ccc2c3c1O[C@H]1[C@H](O)CC[C@H]4[C@@H](C2)N(C)CC[C@@]341	inactive: 4.18%
O=c1oc2ccccc2c(O)c1C(c1ccccc1O)c1c(O)c2ccccc2oc1=O	inactive: -35.2%
C[C@@H](Cc1ccccc1)NCCC(c1ccccc1)c1ccccc1	inactive: -12.8%
OCC(O)Cc1ccc2c(c1)OCO2 (stereo unspecified)	inactive: -14.9%
CC1=C2[C@H]3OC(=O)[C@@H](C)[C@@H]3CC[C@@]2(C)C=CC1=O	inactive: -7.81%
COP(=S)(OC)SCN1C(=O)c2ccccc2C1=O	inactive: -9.49%
O=[N+]([O-])c1c2ccccc2cc2ccccc12	inactive: -9.34%
CCCN(CCC)C1CCc2ccc(O)cc2C1 (stereo unspecified)	inactive: -3.55% and inactive: -18.5%
CCC(C)C(=O)OC1C(O)C2C(CN3CC(C)CCC3[C@]2(C)O)C2C[C@]34O[C@@]5(O)C(OC(=O)C(C)(O)CC)CCC3(C)C5C(OC(C)=O)C(OC(C)=O)C4[C@@]21O (stereo partly specified)	inactive: -1.91%
CCCC(=O)OC(C(Cl)(Cl)Cl)P(=O)(OC)OC (stereo unspecified)	inactive: -13.9%
CCC(N)C(O)c1ccc(O)c(O)c1 (stereo unspecified)	inactive: -7.38%
CC(C)CCON=O	inactive: 3.62%
CC[C@H](C)[C@H]1O[C@]2(C=C[C@@H]1C)C[C@@H]1C[C@@H](C/C=C(\C)[C@@H](O[C@H]3C[C@H](OC)[C@@H](O[C@H]4C[C@H](OC)[C@@H](O)[C@H](C)O4)[C@H](C)O3)[C@@H](C)/C=C/C=C3\CO[C@@H]4[C@H](O)C(C)=C[C@@H](C(=O)O1)[C@]34O)O2	inactive: -30.9%
CC1=C(O)C(=O)C=C2C1=CC=C1[C@]2(C)CC[C@@]2(C)C3C[C@](C)(C(=O)O)CC[C@@]3(C)CC[C@@]12C (stereo partly specified)	inactive: -13.4%
CC(C)n1cnc2c(C(=O)N[C@H]3CN4CCC3CC4)cc(Cl)cc21	inactive: -3.07%
C[C@@H](Cc1ccccc1)N(C)C	inactive: -13.5%
CC(=O)N1CC2CC(C1)c1cccc(=O)n1C2 (stereo unspecified)	inactive: -2.05%
CC(C)(O)[C@@H]1[C@H]2OC(=O)[C@@H]1[C@]1(O)C[C@H]3O[C@]34C(=O)O[C@H]2[C@@]14C (tested in a mixture with another compound)	inactive: -11.3%
